What was measured:
Assay in all cases: cAMP accumulation
Type in all cases: cell-based
hCTR T280A = target: T1, hCTR T280A (Homo sapiens, UniProt P30988, T280A); conditions: CV1-FlpIn cells, 30 min, IBMX, mean ± S.E.M.
T1 construct: expressed in transfected cells
Procedure: (§1) Cells (2.5 × 10^4 cells/well) were seeded into 96-well plates and incubated overnight. Cells were stimulated with increasing concentrations of ligands for 30 min in the presence of IBMX. The liquid was discarded, changed to absolute ethanol and volatilized to dryness at room temperature. […] Data were normalized to the response of 100 μM forskolin.
(§2) Data were corrected for radioligand occupancy using the Cheng-Prusoff equation in Prism; as such data are reported as pKi. Emax and EC50 were estimated from concentration-response curves using with a 3-parameter logistic equation in Prism (v7). These values are a composite of functional affinity, efficacy and stimulus response coupling. […] Significance was accepted at P < 0.05.

hCTR Y284A = target: T2, hCTR Y284A (Homo sapiens, UniProt P30988, Y284A); conditions: CV1-FlpIn cells, 30 min, IBMX, mean ± S.E.M.
T2 construct: expressed in transfected cells
Procedure: as §1, §2

hCTR F359A = target: T3, hCTR F359A (Homo sapiens, UniProt P30988, F359A); conditions: CV1-FlpIn cells, 30 min, IBMX, mean ± S.E.M.
T3 construct: expressed in transfected cells
Procedure: as §1, §2

hCTR S292A = target: T4, hCTR S292A (Homo sapiens, UniProt P30988, S292A); conditions: CV1-FlpIn cells, 30 min, IBMX, mean ± S.E.M.
T4 construct: expressed in transfected cells
Procedure: as §1, §2

hCTR V293A = target: T5, hCTR V293A (Homo sapiens, UniProt P30988, V293A); conditions: CV1-FlpIn cells, 30 min, IBMX, mean ± S.E.M.
T5 construct: c-Myc (N); expressed in transfected cells
Procedure: as §1, §2

hCTR R362A = target: T6, hCTR R362A (Homo sapiens, UniProt P30988, R362A)
T6 construct: expressed in transfected cells
Procedure: as §1, §2

hCTR H296A = target: T7, hCTR H296A (Homo sapiens, UniProt P30988, H296A); conditions: CV1-FlpIn cells, 30 min, IBMX, mean ± S.E.M.
T7 construct: c-Myc (N); expressed in transfected cells
Procedure: as §1, §2

hCTR M376A = target: T8, hCTR M376A (Homo sapiens, UniProt P30988, M376A); conditions: CV1-FlpIn cells, 30 min, IBMX, mean ± S.E.M.
T8 construct: c-Myc (N); expressed in transfected cells
Procedure: as §1, §2

hCTR F356A = target: T9, hCTR F356A (Homo sapiens, UniProt P30988, F356A); conditions: CV1-FlpIn cells, 30 min, IBMX, mean ± S.E.M.
T9 construct: c-Myc (N); expressed in transfected cells
Procedure: as §1, §2

hCTR N288A = target: T10, hCTR N288A (Homo sapiens, UniProt P30988, N288A); conditions: CV1-FlpIn cells, 30 min, IBMX, mean ± S.E.M.
T10 construct: expressed in transfected cells
Procedure: as §1, §2

hCTR K366A = target: T11, hCTR K366A (Homo sapiens, UniProt P30988, K366A); conditions: CV1-FlpIn cells, 30 min, IBMX, mean ± S.E.M.
T11 construct: c-Myc (N); expressed in transfected cells
Procedure: as §1, §2

hCTR P363A = target: T12, hCTR P363A (Homo sapiens, UniProt P30988, P363A); conditions: CV1-FlpIn cells, 30 min, IBMX, mean ± S.E.M.
T12 construct: expressed in transfected cells
Procedure: as §1, §2

hCTR I371A = target: T13, hCTR I371A (Homo sapiens, UniProt P30988, I371A); conditions: CV1-FlpIn cells, 30 min, IBMX, mean ± S.E.M.
T13 construct: c-Myc (N); expressed in transfected cells
Procedure: as §1, §2

hCTR V283A = target: T14, hCTR V283A (Homo sapiens, UniProt P30988, V283A); conditions: CV1-FlpIn cells, 30 min, IBMX, mean ± S.E.M.
T14 construct: expressed in transfected cells
Procedure: as §1, §2

hCTR W290A = target: T15, hCTR W290A (Homo sapiens, UniProt P30988, W290A); conditions: CV1-FlpIn cells, 30 min, IBMX, mean ± S.E.M.
T15 construct: c-Myc (N); expressed in transfected cells
Procedure: as §1, §2

hCTR V357A = target: T16, hCTR V357A (Homo sapiens, UniProt P30988, V357A); conditions: CV1-FlpIn cells, 30 min, IBMX, mean ± S.E.M.
T16 construct: c-Myc (N); expressed in transfected cells
Procedure: as §1, §2

hCTR L297A = target: T17, hCTR L297A (Homo sapiens, UniProt P30988, L297A); conditions: CV1-FlpIn cells, 30 min, IBMX, mean ± S.E.M.
T17 construct: c-Myc (N); expressed in transfected cells
Procedure: as §1, §2

hCTR W361A = target: T18, hCTR W361A (Homo sapiens, UniProt P30988, W361A); conditions: CV1-FlpIn cells, 30 min, IBMX, mean ± S.E.M.
T18 construct: expressed in transfected cells
Procedure: as §1, §2

hCTR Y374A = target: T19, hCTR Y374A (Homo sapiens, UniProt P30988, Y374A); conditions: CV1-FlpIn cells, 30 min, IBMX, mean ± S.E.M.
T19 construct: c-Myc (N); expressed in transfected cells
Procedure: as §1, §2

hCTR E294A = target: T20, hCTR E294A (Homo sapiens, UniProt P30988, E294A); conditions: CV1-FlpIn cells, 30 min, IBMX, mean ± S.E.M.
T20 construct: c-Myc (N); expressed in transfected cells
Procedure: as §1, §2

hCTR L298A = target: T21, hCTR L298A (Homo sapiens, UniProt P30988, L298A); conditions: CV1-FlpIn cells, 30 min, IBMX, mean ± S.E.M.
T21 construct: c-Myc (N); expressed in transfected cells
Procedure: as §1, §2

hCTR N365A = target: T22, hCTR N365A (Homo sapiens, UniProt P30988, N365A); conditions: CV1-FlpIn cells, 30 min, IBMX, mean ± S.E.M.
T22 construct: c-Myc (N); expressed in transfected cells
Procedure: as §1, §2

hCTR Y299A = target: T23, hCTR Y299A (Homo sapiens, UniProt P30988, Y299A); conditions: CV1-FlpIn cells, 30 min, IBMX, mean ± S.E.M.
T23 construct: c-Myc (N); expressed in transfected cells
Procedure: as §1, §2

hCTR WT = target: T24, hCTR WT (Homo sapiens, UniProt P30988); conditions: CV1-FlpIn cells, 30 min, IBMX, mean ± S.E.M.
T24 construct: expressed in transfected cells
Procedure: as §1, §2

hCTR Y372A = target: T25, hCTR Y372A (Homo sapiens, UniProt P30988, Y372A); conditions: CV1-FlpIn cells, 30 min, IBMX, mean ± S.E.M.
T25 construct: c-Myc (N); expressed in transfected cells
Procedure: as §1, §2

hCTR I279A = target: T26, hCTR I279A (Homo sapiens, UniProt P30988, I279A); conditions: CV1-FlpIn cells, 30 min, IBMX, mean ± S.E.M.
T26 construct: expressed in transfected cells
Procedure: as §1, §2

hCTR F285A = target: T27, hCTR F285A (Homo sapiens, UniProt P30988, F285A); conditions: CV1-FlpIn cells, 30 min, IBMX, mean ± S.E.M.
T27 construct: expressed in transfected cells
Procedure: as §1, §2

hCTR M367A = target: T28, hCTR M367A (Homo sapiens, UniProt P30988, M367A); conditions: CV1-FlpIn cells, 30 min, IBMX, mean ± S.E.M.
T28 construct: c-Myc (N); expressed in transfected cells
Procedure: as §1, §2

hCTR R281A = target: T29, hCTR R281A (Homo sapiens, UniProt P30988, R281A); conditions: CV1-FlpIn cells, 30 min, IBMX, mean ± S.E.M.
T29 construct: expressed in transfected cells
Procedure: as §1, §2

hCTR C289A = target: T30, hCTR C289A (Homo sapiens, UniProt P30988, C289A); conditions: CV1-FlpIn cells, 30 min, IBMX, mean ± S.E.M.
T30 construct: c-Myc (N); expressed in transfected cells
Procedure: as §1, §2

hCTR P360A = target: T31, hCTR P360A (Homo sapiens, UniProt P30988, P360A); conditions: CV1-FlpIn cells, 30 min, IBMX, mean ± S.E.M.
T31 construct: expressed in transfected cells
Procedure: as §1, §2

hCTR V375A = target: T32, hCTR V375A (Homo sapiens, UniProt P30988, V375A); conditions: CV1-FlpIn cells, 30 min, IBMX, mean ± S.E.M.
T32 construct: c-Myc (N); expressed in transfected cells
Procedure: as §1, §2

hCTR L368A = target: T33, hCTR L368A (Homo sapiens, UniProt P30988, L368A); conditions: CV1-FlpIn cells, 30 min, IBMX, mean ± S.E.M.
T33 construct: c-Myc (N); expressed in transfected cells
Procedure: as §1, §2

T13 sequence (P30988 25-474 I371A): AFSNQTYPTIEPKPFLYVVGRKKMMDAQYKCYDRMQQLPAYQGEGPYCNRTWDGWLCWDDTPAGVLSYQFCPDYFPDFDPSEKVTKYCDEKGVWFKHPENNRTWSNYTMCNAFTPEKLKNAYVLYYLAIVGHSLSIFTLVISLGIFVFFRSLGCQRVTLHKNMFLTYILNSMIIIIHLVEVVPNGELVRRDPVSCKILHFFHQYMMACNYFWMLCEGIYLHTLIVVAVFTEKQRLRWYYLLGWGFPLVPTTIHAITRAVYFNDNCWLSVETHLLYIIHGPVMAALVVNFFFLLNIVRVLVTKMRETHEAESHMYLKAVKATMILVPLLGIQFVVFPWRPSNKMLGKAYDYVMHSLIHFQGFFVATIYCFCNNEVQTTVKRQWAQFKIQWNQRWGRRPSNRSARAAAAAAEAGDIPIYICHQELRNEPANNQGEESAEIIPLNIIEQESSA
T16 sequence (P30988 25-474 V357A): as the sequence (P30988 25-474 I371A) above, with V333A, A347I counted along it
T6 sequence (P30988 25-474 R362A): as the sequence (P30988 25-474 I371A) above, with R338A, A347I counted along it
T1 sequence (P30988 25-474 T280A): as the sequence (P30988 25-474 I371A) above, with T256A, A347I counted along it
T27 sequence (P30988 25-474 F285A): as the sequence (P30988 25-474 I371A) above, with F261A, A347I counted along it
T19 sequence (P30988 25-474 Y374A): as the sequence (P30988 25-474 I371A) above, with A347I, Y350A counted along it
T30 sequence (P30988 25-474 C289A): as the sequence (P30988 25-474 I371A) above, with C265A, A347I counted along it
T28 sequence (P30988 25-474 M367A): as the sequence (P30988 25-474 I371A) above, with M343A, A347I counted along it
T21 sequence (P30988 25-474 L298A): as the sequence (P30988 25-474 I371A) above, with L274A, A347I counted along it
T7 sequence (P30988 25-474 H296A): as the sequence (P30988 25-474 I371A) above, with H272A, A347I counted along it
T20 sequence (P30988 25-474 E294A): as the sequence (P30988 25-474 I371A) above, with E270A, A347I counted along it
T11 sequence (P30988 25-474 K366A): as the sequence (P30988 25-474 I371A) above, with K342A, A347I counted along it
T23 sequence (P30988 25-474 Y299A): as the sequence (P30988 25-474 I371A) above, with Y275A, A347I counted along it
T26 sequence (P30988 25-474 I279A): as the sequence (P30988 25-474 I371A) above, with I255A, A347I counted along it
T4 sequence (P30988 25-474 S292A): as the sequence (P30988 25-474 I371A) above, with S268A, A347I counted along it
T2 sequence (P30988 25-474 Y284A): as the sequence (P30988 25-474 I371A) above, with Y260A, A347I counted along it
T3 sequence (P30988 25-474 F359A): as the sequence (P30988 25-474 I371A) above, with F335A, A347I counted along it
T24 sequence (P30988 25-474): as the sequence (P30988 25-474 I371A) above, with A347I counted along it
T18 sequence (P30988 25-474 W361A): as the sequence (P30988 25-474 I371A) above, with W337A, A347I counted along it
T5 sequence (P30988 25-474 V293A): as the sequence (P30988 25-474 I371A) above, with V269A, A347I counted along it
T22 sequence (P30988 25-474 N365A): as the sequence (P30988 25-474 I371A) above, with N341A, A347I counted along it
T29 sequence (P30988 25-474 R281A): as the sequence (P30988 25-474 I371A) above, with R257A, A347I counted along it
T17 sequence (P30988 25-474 L297A): as the sequence (P30988 25-474 I371A) above, with L273A, A347I counted along it
T32 sequence (P30988 25-474 V375A): as the sequence (P30988 25-474 I371A) above, with A347I, V351A counted along it
T33 sequence (P30988 25-474 L368A): as the sequence (P30988 25-474 I371A) above, with L344A, A347I counted along it
T8 sequence (P30988 25-474 M376A): as the sequence (P30988 25-474 I371A) above, with A347I, M352A counted along it
T12 sequence (P30988 25-474 P363A): as the sequence (P30988 25-474 I371A) above, with P339A, A347I counted along it
T15 sequence (P30988 25-474 W290A): as the sequence (P30988 25-474 I371A) above, with W266A, A347I counted along it
T10 sequence (P30988 25-474 N288A): as the sequence (P30988 25-474 I371A) above, with N264A, A347I counted along it
T25 sequence (P30988 25-474 Y372A): as the sequence (P30988 25-474 I371A) above, with A347I, Y348A counted along it
T31 sequence (P30988 25-474 P360A): as the sequence (P30988 25-474 I371A) above, with P336A, A347I counted along it
T9 sequence (P30988 25-474 F356A): as the sequence (P30988 25-474 I371A) above, with F332A, A347I counted along it
T14 sequence (P30988 25-474 V283A): as the sequence (P30988 25-474 I371A) above, with V259A, A347I counted along it

## CC(C)C[C@H](NC(=O)[C@H](CC(N)=O)NC(=O)[C@H](CC(N)=O)NC(=O)[C@H](CO)NC(=O)[C@H](CO)NC(=O)[C@H](CCCNC(=N)N)NC(=O)[C@@H](NC(=O)[C@H](CC(C)C)NC(=O)[C@H](Cc1ccccc1)NC(=O)[C@H](CC(N)=O)NC(=O)[C@H](C)NC(=O)[C@H](CC(C)C)NC(=O)[C@H](CCCNC(=N)N)NC(=O)[C@H](CCC(N)=O)NC(=O)[C@@H](NC(=O)[C@H](C)NC(=O)[C@@H]1CSSC[C@H](NC(=O)[C@@H](N)CCCCN)C(=O)N[C@@H](CC(N)=O)C(=O)N[C@@H]([C@@H](C)O)C(=O)N[C@@H](C)C(=O)N[C@@H]([C@@H](C)O)C(=O)N1)[C@@H](C)O)C(C)C)C(=O)NCC(=O)N1CCC[C@H]1C(=O)N[C@H](C(=O)N[C@@H](CC(C)C)C(=O)N1CCC[C@H]1C(=O)N1CCC[C@H]1C(=O)N[C@H](C(=O)N[C@@H](CC(N)=O)C(=O)N[C@H](C(=O)NCC(=O)N[C@@H](CO)C(=O)N[C@@H](CC(N)=O)C(=O)N[C@H](C(=O)N[C@@H](Cc1ccc(O)cc1)C(N)=O)[C@@H](C)O)C(C)C)[C@@H](C)O)C(C)C [rAmy]
hCTR T280A
  EC50: 0.00339 µM
hCTR Y284A
  EC50: 0.0102 µM
hCTR F359A
  EC50: 0.0234 µM
hCTR S292A
  EC50: 0.00407 µM
hCTR V293A
  EC50: 0.00741 µM
hCTR R362A
  EC50: 0.0245 µM
hCTR H296A
  EC50: 0.00513 µM
hCTR M376A
  EC50: 0.0468 µM
hCTR F356A
  EC50: 0.024 µM
hCTR N288A
  EC50: 0.00302 µM
hCTR K366A
  EC50: 0.00955 µM
hCTR P363A
  EC50: 0.0151 µM
hCTR I371A
  EC50: 0.00186 µM
hCTR V283A
  EC50: 0.00676 µM
hCTR W290A
  EC50: 0.0813 µM
hCTR V357A
  EC50: 0.0204 µM
hCTR L297A
  EC50: 0.0135 µM
hCTR W361A
  EC50: 0.0162 µM
hCTR Y374A
  EC50: 0.00794 µM
hCTR E294A
  EC50: 0.012 µM
hCTR L298A
  EC50: 0.00617 µM
hCTR N365A
  EC50: 0.00661 µM
hCTR Y299A
  EC50: 0.0195 µM
hCTR WT
  EC50: 0.00891 µM
hCTR Y372A
  EC50: 0.186 µM
hCTR I279A
  EC50: 0.00295 µM
hCTR F285A
  EC50: 0.00676 µM
hCTR M367A
  EC50: 0.00501 µM
hCTR R281A
  EC50: 0.0437 µM
hCTR C289A
  EC50: 0.0676 µM
hCTR P360A
  EC50: 0.0234 µM
hCTR V375A
  EC50: 0.00794 µM
hCTR L368A
  EC50: 0.0117 µM
